Results reported in the RNAGym collection of RNA variant scans (doi:10.7554/elife.90254).
Read counts are not given, so values of variants with three or more changes are uncertain.

B1: OR4K15 (parent)
chain: GUUAACGGUCAUAGGCCAUGGAAACUAGGAGCACCAUUUCGCUGCCAGUGAAGAAAUGAACAAAGAAAAUCUGGGCCAGGCAGGCAUCAAAAGAAAUAGUCUUGCGCUCAACCAGAAAGUCUGUAAUCAUUUUAAGGGUA

Variants of: B1
Test: self-cleavage, relative activity (ratio to wild type); higher = more cleavage; in vitro, sequencing; the parent is a self-cleaving ribozyme

Variant | self-cleavage
U39C U43C A54G A78G C88A U132C | 0.19
U38A G73U C85U | 0.27
U38C C76U A86G G137U | 0.08
U39C A52G U57C U72A | 0.19
U38C A52U U57C A78G A95G | 0.18
U37C A95U U102C A111G | 0.03
U38C A51G A111G | 0.03
U38A A63U A69G A110C | 0.38
U39C A63G U103C A110G | 0.21
U37C U120C A140G | 0.91
U37C U57C A91G | 0.36
U39A A92G U130C A135G | 1.28
U38C A67G U131C | 1.23
U39C A47U A60G A68U C101A | 0.06
U38C U43A U57C A110G | 0.2
U39C U70C U120A | 0.6
U39C U43C A56U | 1.45
U39A A51U A68U | 2
U39C A51G A91G | 0.77
U38C A67G U108C | 0.03
U39A A52C U57C A60C A96G | 0.69
U39A G48A A51G A134G | 1.18
U38C G119A U132C | 1.97
U38C G41C A52G | 2.53

Variant | self-cleavage
U37C C81U A89G A126U | 0.24
U38C A118G U139C | 1.01
U38C A114G G115U | 0
U38C A51G A125G | 0.52
U39C A47G A52G A117G | 1.97
U37C G84A C88U A96G C105G A129G | 0
U38C A68U U70C | 1.13
U39C G41U U57A U100C A126G | 2.48
U38C C42U A54G | 1.16
U37G A51G A68G A89G | 0.8
U38A A91G C128U U131C | 0.66
U39C A78U A92G A118G | 0.08
U38C A86U U127A | 2.79
U38C A54G A91G A126U A129U | 0.58
U39C A64G U102C | 2.14
U39C A82G U122C | 0.21
U39C A62G A94G | 1.46
U39A U122C U139C | 0.49
U37C U72C A94G A126G U131C | 0.02
U39C A59G C85U U124C U139C | 0.09
U38A A111C U127C | 0.02
U37C A111G A117G | 0.02
U39C A51G A59G | 1.21
U38C A68G A94G G99A A125G | 0.16

Variant | self-cleavage
U38C A56G U100C A125G U131C | 1.48
U39C U43C U57C A86G A117G | 1.06
U38C U39C U103C | 2.22
U39A A54G A78G U130C | 0.13
U39A A98C G106A | 0.01
U38C A67G A118G U122C | 0.12
U38C A78C U103C | 0.25
U38C U87C U100C | 2.37
U38C A62G A86U U102C A125G | 1.56
U38A U49C A91G | 1.01
U38C A92G U102C U122C | 1.83
U37C C46U A52G | 1.8
U37C U49C A64G A118G U131C | 0.33
U37C G48A A69U A95G A135U | 0.86
U39A A66G A95G | 2.16
U39C U70C A134G | 0.49
U39C A66G U122C | 1.29
U37C A96G A118G | 1.08
U39C C81U U133C | 0.42
U39C A59G U102C | 2.06
U39A A60G A67G U108C G119A | 0.02
U38C U72A A91G A116G | 0.05
U38C A56G U70C U130C | 1.23
U37C U38C U87C | 1.8

Variant | self-cleavage
U39C A60G U133C | 0.83
U39C G104A A140G | 0.03
U38C U87C A90U | 1.41
U37C U70C A82G G106A | 0.02
U38C A62G A69G A82U A91G | 0.04
U39A A82G A118C | 0.27
U38C A66U A92G | 2
U39A A51G A54U A90G | 1.67
U37C A114G U132C | 0.87
U38C A91G A111G | 0
U39C A47U A63G A67G | 1
U39C A117G A135U | 2.04
U38C A67G A68G | 0.97
U37C U43A U132C | 2.08
U39C A63U U108C A117G A118C U122C | 0.01
U38A A64G A90G | 1.92
U39C U70C U87C A89U | 1.08
U39A A94G U102C A116U | 0.65
U38C A111G U131C | 0.01
U38C A116G U127A | 0.98
U38A A94G A135G | 1.18
U37C A94U A114G | 1.62
U39A A110U C113U | 0.25
U39C A56G A69G A82U | 0.37

Variant | self-cleavage
U39C A59G U87A A98U | 1.59
U39C A91G A92G G99U | 0.29
U38C A92G U132C | 2.08
U39C A62U A91G | 0.81
U38C A60G A67G | 1.16
U38C A59G A68G U102A U103C U108C | 0.03
U39C A55G C121U | 0.97
U39C G41U U97C U122C | 2.11
U38C G48U A67U U100C | 1.87
U38C G74C A91G | 0.14
U39C A63U U108C | 0
U39C A60G A69G U70A U100C | 1.9
U39A A56G A63G A69G A78G | 0.42
U38C A98G A117G | 1.21
U38C U43C A94G | 1.34
U37C A114G A117G | 0.29
U39C A47G A68G A86G | 1.63
U39C A125G U139C | 0.65
U39A A52U A64G U127C | 0.9
U38C U39C A67G | 1.28
U39A G50A U100C U122C | 2.03
U39C U49C U103C | 0.75
U38C A51G U102A U127C | 0.41
U38C U39A A82U | 0.18

Variant | self-cleavage
U39A A59G A82C A111U | 0.05
U37C U38C A92G | 1.4
U38C U43C A59G | 0.82
U38C C46U A55G A111G G137A | 0
U37C U38C A54G C76A U127C | 0.08
U39C A68G U130C | 0.94
U39A A56G A63G | 1.15
U39C U57C A66G A67G A117G U124A | 0.49
U39C A54G A56C A86G | 0.66
U37C U38C A111G A135U | 0.01
U39C U49C A94G | 1
U38C A56G A63G | 1.85
U38A A66U A117G U130C | 0.71
U38C A68G A94G A114U | 0.07
U38A U39A A89U | 1.85
U38C A54G A82G | 0.28
U39C A63G A92G A134G | 0.66
U38C A90U A126C U130C | 0.51
U38C U49A A59U C107U | 0.03
U38G U49A A56G A68G | 1.38
U39A A54U A94G U127C U130C | 0.46
U39A A59G A66U U72A A91G | 0.21
U38C A51U A91G A96G | 1.8
U39C A54G A98U | 1.24

Variant | self-cleavage
U38C G48U A51G | 0.65
U37C A90G A129G | 0.73
U38C U103C A116U U120C | 0.03
U39C G84C G115U | 0.02
U39C A47G A56G U57G U72G U122C | 0.19
U39C A62U A91G U102C | 2.14
U39A A51C A78G A82U | 0.12
U37C U103C A114U | 0.21
U37C U103C A114C | 0.03
U38C A89G A94U | 0.79
U39A A110C A129C | 0.1
U38C A86G A96G | 0.63
U38C A66G A68G A110G | 0.12
U38C U39C A56G G106A | 0.01
U39A U57C A67G A114G | 0.41
U39C A51U A117G | 1.92
U38C U103C A126G A140G | 0.86
U39A A62G U103C U132C | 0.77
U38C U49C U87C U124C | 1.31
U39A A52G U122C U132C | 1.09
U37C G41A A59G A111G | 0.02
U39C G50U A68G | 1.4
U37G A60G A68G U132C | 0.17
